# Measurements as given in the supplement of paper PMC11417369.
# The list shows a part of the results.
# System: PfHDP1 homeodomain (GST-tagged)
# Experiment: gcPBM binding intensity (ln(normalized median fluorescence intensity)); higher = stronger DNA binding
# Outline: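 GST-tagged P. falciparum DNA-binding domains produced in E. coli were incubated for 1 h on an Agilent 4 × 180k array of primer-extended double-stranded 36-bp intergenic genomic probes with negative controls. Binding intensity is the highest Masliner-normalised natural-log median intensity across replicate spots of either probe orientation, with bound protein detected by Alexa488 anti-GST antibody at 488 nm.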
row,Sequence,gcPBM binding intensity (ln)
1,TTTTTATTTAATAATATATTAATCATATAAATAAAT [GTGCAC_negctrl_site210],6.07
2,TAAAAAAAAAAAACAAGTACATATATAAATATATAT [XGTACX_site7537],6.07
3,CAAGAATAAAAATACAAGCACACATGTATGAAATAT [CACACA_site3214],6.74
4,AAACCGAATTTACATGAATGTAAATTATGTTGTTTT [CACACA_negctrl_site1834],5.88
5,ACATAAAATAAATATACACACATATGTATTTATTAT [CACACA_site5648],6.69
6,ATTTCTCTATAGTAATGTACAAAAAAAAGGAAAAAG [XGTACX_site2757],6.49
7,TTATGGATAAATAAATGTACGTTAAGATAACACAAA [XGTACX_site4208],6.24
8,ATATACATATGTGTGTGTACTTATATCACATTTTTG [XGTACX_site3785],6.56
9,GTTTTTTTGTTTTAGTGTACCTAAAACTGCATGTAG [XGTACX_site294],7.23
10,TCGACAAAGGCATATACACACATTTGTAACATAAAT [CACACA_site4471],6.33
11,TGGATAATCAAAAATTGTACAAGTGTTGTTATTGGT [XGTACX_site8010],6.76
12,ACCGGTGGAACGTTTTGTACATATATAATAATATAT [XGTACX_site2143],6.62
13,ATATATATATTGAAAAGTACATATATATATATATTA [XGTACX_site1560],8.15
14,AAAAGAAATAAGGATACACACTATTGATAAAAGTAG [CACACA_site4309],6.59
15,TATTACAAATAATACCGTACACAAATGTTTTTTTAT [XGTACX_site7977],6.37
16,TCGTGGGAAAATATTACACACATTTACTATAGTATC [CACACA_site5836],6.43
17,CTTGGGAAGTATTCAGTGCAAAATATAAGCAGGTCA [GTGCAC_site9758],10.2
18,CATATTCCCCCCCACACACACACACGCATACATACC [CACACA_site7148],9.16
19,ATATAAAAAATATAAGGTACACATATATGTAGATAT [XGTACX_site6792],6.97
20,TAAATAAAATACAAATGTACATAAATAATAAATATA [XGTACX_site1813],6.43
21,AATTATTTTAAATATTGTACTATTACAGAATGGTGT [XGTACX_site5693],6.65
22,TATATATTAATCAAAGTGCAATAATAAAATAAAAGT [GTGCAC_site9490],8.92
23,CTCTAATTAATATTTGTACACACATATTTAACCTAC [CACACA_site9043],6.78

row,Sequence,gcPBM binding intensity (ln)
1,TCAAATTACGTAAGAACATGCGATATAAGAAATACG [TGCATGCA_site691],6.96
2,TAACTTTATTTTCCTGTACACACATTTGACATATTA [CACACA_site9116],7.01
3,AGCAGACACCAACACACACACATATATATATATATA [CACACA_site337],9.45
4,TTTATACAAAAGAACAGTACAATAAAGGATTTATGA [XGTACX_site811],6.24
5,TTTTTTTTTATATATACACACAATAAATAAATATAA [CACACA_site2954],6.5
6,TACATAAATACATACATACACACATATATATATATA [CACACA_site2105],9.29
7,CTTTTTTATTTTTCAACACACATAATAAATTTCTAT [CACACA_site1037],6.68
8,GGTTAAAAAAAGCATACACACTATCCTCTTTGCTCT [CACACA_site7246],7.14
9,ATATTTTACAAATGCACACATAATTTTTTTTTTTTT [CACACA_site2763],10.5
10,GAACCTTTAAAATACACACCCAAATCCTTTGAAATA [CACACA_site3630],6.5
11,AAATTAAACAATAAATGTACATATATATTTGTATAT [XGTACX_site1092],6.49
12,ATAAAAAATAAATAAGGTACAGAACATTTATACATT [XGTACX_site1783],6.58
13,AACAAGGTATTAGGGTGTACTATATATATTTATATT [XGTACX_site7776],6.44
14,AATAAAATATAAACATTATATATATATATATATATA [GTGCAC_negctrl_site58],9.44
15,ATTTTTTCTTTTTTTTTTCCGTTTTTTTGGACATTT [CACACA_negctrl_site1174],6.24
16,TAAAGGAGCCTATGAACACACACATGTACTTATATT [CACACA_site9351],6.42
17,AATTGTTTGTTTGGGTGTACATGGTTCTATATAAAT [XGTACX_site7940],7.07
18,AATACAACATAATGAAGTACTGTATTTTATATTACT [XGTACX_site4885],6.12
19,TAATTTGAACGGTACAGTACTCTTTTTCTTTTTCAT [XGTACX_site5534],6.22
20,ATATATTTTTTCAATTGTACGTTTTAATAATATTTA [XGTACX_site2130],6.7
21,TTTCTTTGAATAAATACACACGAGAAATGAAAGTAG [CACACA_site8490],7.2
22,ATGAAATCTTTAGAATATAGATGATGTTATTTAATT [XGTACX_negctrl_site511],6.08
23,ATTAAAATGGTATGTGCGCACATAATATATATATGT [GTGCAC_site9572],9.81

row,Sequence,gcPBM binding intensity (ln)
1,ACATTGACATGTCGAAGTACTCAAGAAGCATACAAT [XGTACX_site3948],6.52
2,ATATAAATGATATGTACACACATTTATATTTATAAA [CACACA_site7600],6.41
3,ACTCTATACATCTAATGTACATGGAAAAAAAAATTC [XGTACX_site733],6.78
4,TGGAAAATTATTAACACACACATATAAATATATATA [CACACA_site46],6.49
5,GTAATAAGAATTATAGTGCAATGTAATACATTTATA,8.07
6,TTCTTACATAAAATATCACACACATAAAAAAACAAT [CACACA_site8576],7.03
7,TTTATTACCATATTTTGTACACACATCTTTATCTCA [XGTACX_site6842],7.34
8,GCAAAATTTCCTAAGGTGCTTTTATTTTACACCGTT [GTGCAC_site9923],6.49
9,AATGGGTTAGCACATACACACCAATATATTATAGAT [CACACA_site7444],6.71
10,CTTTTATTGCTCTATATGCACACCTTAATTCTTCAT [CACACA_site2195],10.5
11,AAAACCTAAAAGTCTTAAATTTTAAATATACCTACA [GTGCAC_negctrl_site492],6.15
12,CAAAATATAAAAACATGTACATAAATATTAACGAAT [XGTACX_site2380],6.95
13,ATATGTTTATTAAATGCATGTCAAGACTTAAGATAT [TGCATGCA_site329],6.64
14,TCATCCACATATTGTAGTACAAGATAATTGTTTATT [XGTACX_site1634],6.65
15,AAAAATACAATTTTCTTGCACTTTGTTGCATTGTAA,9.77
16,AACATATACACGAACACACACACATATAAATAAATA [CACACA_site6380],7.24
17,AAAATACATAAACGTTCACACATTGAAGATCACAAG [CACACA_site5347],6.45
18,TAGGTACATAAATTGGTGCAAAGTGTACATATATAT,10.8
19,TTTAATACTTTTTTCTGTACACACTTGATTTACTAT [XGTACX_site5925],6.65
20,AAAAAAAAAAGACACACACACACACGGAGATATATA [CACACA_site6216],6.9
21,AATTTTAATTATATCACACATAATATATACCAAAAA [CACACA_site6011],6.29
22,TACATATTTTTATATACACACAATAATTACTATAAA [CACACA_site6879],6.55
23,TCTTCCGCTTTATGGAGTACTATGGTAGCCTTTCCT [XGTACX_site2958],5.87

row,Sequence,gcPBM binding intensity (ln)
1,GACCTACAAAAAGGCACACATATACGCATACATACA [CACACA_site2179],6.8
2,CATATTTTCAAAATTAGTACATAAAAAAAAAAATAT [XGTACX_site3101],6.53
3,TATAATCATATATACACACACATATATATATATATA [CACACA_site2168],9.36
4,AATATTTTTTGTTTTACACACATATATAGATATATA [CACACA_site7662],6.82
5,CAGATATTTGTTCATATACACACTTTTGATAAAATA [CACACA_site1219],6.54
6,CAAAAAATGAAACACACACACACACCCATAAATAAA [CACACA_site1231],6.9
7,TCATATATAAAAAGGGTGCTTTTAAAAGAATGGATT,7.06
8,TTTTTTTTTGTATTTTCACACATTTTTTTTTTTTTT [CACACA_site5407],6.33
9,TTATTTAAACAAATCACACACAAATATATATACATA [CACACA_site2019],6.61
10,TTTTTTGGGTAAAATTATAAAATATGTATATATAAA [CACACA_negctrl_site27],6.12
11,ATATGCATAAAAAGAGGTACACATAAAATATATATA [XGTACX_site5864],6.81
12,TATACACATATATAAAGTACATATATGTGTAAAAAA [XGTACX_site8582],6.8
13,AGAATAAATATGCACACATGCATATATTTTTACACT [TGCATGCA_site893],10.3
14,TTAGTCCATATTTTTGCACACCATTTTTTTTTTTTT [CACACA_site3927],10.3
15,ATCCTTAATATGAACACACAAATATATTGCACATAT [CACACA_site6230],10.9
16,ATATATTTATATTGTACACACATTTATGCATATATA [CACACA_site7502],6.85
17,AAATATACAATATTCACACAAAAAAATACATTACAA [CACACA_site5004],6.57
18,TGTTTTTATAAAATAAATAAATATATATATATATAT [CACACA_negctrl_site502],9.03
19,TTTCTTACAAAAGCTAGAGTTTTTTTTTTTTTTTTT [XGTACX_negctrl_site341],6.43
20,TAAATTTGTGTTATTAAAAAAATGGTTTAAAAATGT [XGTACX_negctrl_site352],6.53
